No constants are given. Whether binding was seen depends on the method and setting. In cells and extracts the contact can be indirect. Some binding calls cover weakened binding; strength is not graded here. Sequences can lack the tags named with a protein.
Experiments:
Test in all cases: co-IP; lysates of transfected HeLa or 293 T cells in EBC buffer (50 mM Tris pH 8.0, 120 mM NaCl, 0.5% NP-40); 800 μg lysate with 1-2 μg antibody overnight at 4 °C, carrier beads 1 h, washes in NETN buffer, immunoblot; in some panels cells were treated with D4476 or UVC
Myc-Cullin 1 = Myc-Cullin 1 (UniProt Q13616)
Myc-Cullin 2 = Myc-Cullin 2 (UniProt Q13617)
Myc-Cullin 3 = Myc-Cullin 3 (UniProt Q13618)
Myc-Cullin 5 = Myc-Cullin 5 (UniProt Q93034)
Myc-Skp1 = Myc-Skp1 (UniProt P63208)
Myc-CKIα = Myc-CKIα (UniProt P48729)
Myc-CKIδ = Myc-CKIδ (UniProt P48730)

By UniProt entry, the sequences of proteins in these tests, tags left out. Where a name states a change or a piece, a line headed by the entry shows the natural chain unless it says otherwise.
UniProt Q13616: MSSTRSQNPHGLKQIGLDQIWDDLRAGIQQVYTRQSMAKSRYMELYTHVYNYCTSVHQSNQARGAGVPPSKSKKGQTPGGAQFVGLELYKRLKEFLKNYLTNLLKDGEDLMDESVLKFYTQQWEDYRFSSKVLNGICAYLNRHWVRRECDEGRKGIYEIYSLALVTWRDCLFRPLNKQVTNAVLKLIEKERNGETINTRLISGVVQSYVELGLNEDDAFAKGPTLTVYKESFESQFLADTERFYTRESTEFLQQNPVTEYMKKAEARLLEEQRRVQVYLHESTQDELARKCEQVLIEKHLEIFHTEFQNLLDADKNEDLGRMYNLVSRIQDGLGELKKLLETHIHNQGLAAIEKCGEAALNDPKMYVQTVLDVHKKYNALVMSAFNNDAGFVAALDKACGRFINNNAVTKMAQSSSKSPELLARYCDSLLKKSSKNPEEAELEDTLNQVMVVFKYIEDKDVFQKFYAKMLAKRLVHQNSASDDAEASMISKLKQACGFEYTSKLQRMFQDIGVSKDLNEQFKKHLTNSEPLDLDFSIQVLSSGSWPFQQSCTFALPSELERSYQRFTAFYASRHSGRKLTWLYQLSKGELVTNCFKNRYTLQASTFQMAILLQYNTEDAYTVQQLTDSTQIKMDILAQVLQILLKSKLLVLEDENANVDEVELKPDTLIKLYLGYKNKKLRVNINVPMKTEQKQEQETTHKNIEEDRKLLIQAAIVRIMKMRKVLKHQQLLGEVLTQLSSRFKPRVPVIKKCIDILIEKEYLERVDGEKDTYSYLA
UniProt Q13617: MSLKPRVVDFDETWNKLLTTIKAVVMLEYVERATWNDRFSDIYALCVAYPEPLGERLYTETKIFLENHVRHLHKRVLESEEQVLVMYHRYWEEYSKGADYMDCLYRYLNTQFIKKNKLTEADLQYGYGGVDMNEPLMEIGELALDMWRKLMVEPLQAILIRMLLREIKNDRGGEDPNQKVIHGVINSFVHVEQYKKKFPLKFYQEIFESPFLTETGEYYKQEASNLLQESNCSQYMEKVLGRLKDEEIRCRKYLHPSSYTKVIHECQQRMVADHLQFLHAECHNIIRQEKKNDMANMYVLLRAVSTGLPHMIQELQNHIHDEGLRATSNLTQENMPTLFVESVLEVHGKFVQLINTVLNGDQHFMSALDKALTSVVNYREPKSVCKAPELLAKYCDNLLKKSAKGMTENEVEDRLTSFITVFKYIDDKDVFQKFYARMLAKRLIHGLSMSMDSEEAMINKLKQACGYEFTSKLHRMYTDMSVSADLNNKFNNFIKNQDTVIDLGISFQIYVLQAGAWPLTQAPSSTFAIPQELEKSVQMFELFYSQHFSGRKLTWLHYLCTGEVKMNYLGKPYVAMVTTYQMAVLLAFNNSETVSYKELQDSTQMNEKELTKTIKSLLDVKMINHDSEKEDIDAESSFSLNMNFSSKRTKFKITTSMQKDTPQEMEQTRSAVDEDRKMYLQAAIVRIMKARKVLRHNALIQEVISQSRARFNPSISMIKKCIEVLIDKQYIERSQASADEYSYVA
UniProt Q93034: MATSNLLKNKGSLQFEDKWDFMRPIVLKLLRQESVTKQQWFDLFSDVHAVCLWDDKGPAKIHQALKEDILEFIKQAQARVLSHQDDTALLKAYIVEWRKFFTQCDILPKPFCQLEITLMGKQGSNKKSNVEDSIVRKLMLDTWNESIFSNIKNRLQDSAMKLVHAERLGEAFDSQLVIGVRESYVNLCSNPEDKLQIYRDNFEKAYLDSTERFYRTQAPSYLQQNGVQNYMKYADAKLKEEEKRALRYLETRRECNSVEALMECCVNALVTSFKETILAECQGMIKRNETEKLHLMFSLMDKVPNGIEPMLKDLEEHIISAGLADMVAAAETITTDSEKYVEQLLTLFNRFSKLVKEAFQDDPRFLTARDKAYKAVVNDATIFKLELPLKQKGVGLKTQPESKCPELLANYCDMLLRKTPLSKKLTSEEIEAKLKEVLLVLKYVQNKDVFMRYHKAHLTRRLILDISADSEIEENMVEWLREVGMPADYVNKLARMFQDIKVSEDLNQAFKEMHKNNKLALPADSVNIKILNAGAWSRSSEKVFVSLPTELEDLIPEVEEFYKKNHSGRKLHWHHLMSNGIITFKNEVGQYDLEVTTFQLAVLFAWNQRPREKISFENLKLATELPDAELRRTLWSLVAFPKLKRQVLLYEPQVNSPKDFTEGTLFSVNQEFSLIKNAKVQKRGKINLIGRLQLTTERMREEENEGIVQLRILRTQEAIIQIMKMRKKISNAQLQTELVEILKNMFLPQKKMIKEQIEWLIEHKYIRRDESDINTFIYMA
UniProt P63208: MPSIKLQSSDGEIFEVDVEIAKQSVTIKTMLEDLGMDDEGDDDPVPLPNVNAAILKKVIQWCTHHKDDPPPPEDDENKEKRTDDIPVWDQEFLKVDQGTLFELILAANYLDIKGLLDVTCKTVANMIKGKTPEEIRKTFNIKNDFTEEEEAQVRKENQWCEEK
UniProt P48729: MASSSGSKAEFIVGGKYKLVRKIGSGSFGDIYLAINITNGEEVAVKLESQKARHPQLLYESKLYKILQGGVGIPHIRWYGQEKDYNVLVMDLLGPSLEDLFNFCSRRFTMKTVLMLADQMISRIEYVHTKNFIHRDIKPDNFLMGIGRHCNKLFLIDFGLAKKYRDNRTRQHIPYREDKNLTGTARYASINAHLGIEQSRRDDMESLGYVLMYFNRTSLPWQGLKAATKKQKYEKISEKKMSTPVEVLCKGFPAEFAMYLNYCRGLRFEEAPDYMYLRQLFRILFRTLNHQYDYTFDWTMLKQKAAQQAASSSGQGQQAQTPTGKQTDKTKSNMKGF
UniProt P48730: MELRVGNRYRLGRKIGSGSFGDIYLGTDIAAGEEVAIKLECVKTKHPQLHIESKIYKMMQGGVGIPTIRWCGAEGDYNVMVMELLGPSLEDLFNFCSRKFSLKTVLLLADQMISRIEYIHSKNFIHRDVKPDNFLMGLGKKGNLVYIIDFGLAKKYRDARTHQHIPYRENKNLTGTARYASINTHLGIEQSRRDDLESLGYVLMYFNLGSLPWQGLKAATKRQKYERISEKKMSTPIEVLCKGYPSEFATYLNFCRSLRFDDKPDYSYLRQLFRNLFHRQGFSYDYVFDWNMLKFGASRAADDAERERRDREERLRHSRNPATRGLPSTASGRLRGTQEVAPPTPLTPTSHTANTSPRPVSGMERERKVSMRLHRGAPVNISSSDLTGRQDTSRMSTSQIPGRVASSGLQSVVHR

Binder	binding (Myc-Cullin 1)	binding (Myc-Cullin 2)	binding (Myc-Cullin 3)	binding (Myc-Cullin 5)	binding (Myc-Skp1)	binding (Myc-CKIα)	binding (Myc-CKIδ)
Flag-Set8 (protein, UniProt Q9NQR1 1-393) MGEGGAAAALVAAAAAAAAAAAAVVAGQRRRRLGRRARCHGPGRAAGGKMSKPCAVEAAAAAVAATAPGPEMVERRGPGRPRTDGENVFTGQSKIYSYMSPNKCSGMRFPLQEENSVTHHEVKCQGKPLAGIYRKREEKRNAGNAVRSAMKSEEQKIKDARKGPLVPFPNQKSEAAEPPKTPPSSCDSTNAAIAKQALKKPIKGKQAPRKKAQGKTQQNRKLTDFYPVRRSSRKSKAELQSEERKRIDELIESGKEEGMKIDLIDGKGRGVIATKQFSRGDFVVEYHGDLIEITDAKKREALYAQDPSTGCYMYYFQYLSKTYCVDATRETNRLGRLINHSKCGNCQTKLHDIDGVPHLILIASRDIAAGEELLYDYGDRSKASIEAHPWLKH	binds	no binding	no binding	no binding	binds		
HA-Set8 (protein, UniProt Q9NQR1 1-393) MGEGGAAAALVAAAAAAAAAAAAVVAGQRRRRLGRRARCHGPGRAAGGKMSKPCAVEAAAAAVAATAPGPEMVERRGPGRPRTDGENVFTGQSKIYSYMSPNKCSGMRFPLQEENSVTHHEVKCQGKPLAGIYRKREEKRNAGNAVRSAMKSEEQKIKDARKGPLVPFPNQKSEAAEPPKTPPSSCDSTNAAIAKQALKKPIKGKQAPRKKAQGKTQQNRKLTDFYPVRRSSRKSKAELQSEERKRIDELIESGKEEGMKIDLIDGKGRGVIATKQFSRGDFVVEYHGDLIEITDAKKREALYAQDPSTGCYMYYFQYLSKTYCVDATRETNRLGRLINHSKCGNCQTKLHDIDGVPHLILIASRDIAAGEELLYDYGDRSKASIEAHPWLKH						binds	binds
Flag-Set8^S253A (protein, UniProt Q9NQR1 1-393) MGEGGAAAALVAAAAAAAAAAAAVVAGQRRRRLGRRARCHGPGRAAGGKMSKPCAVEAAAAAVAATAPGPEMVERRGPGRPRTDGENVFTGQSKIYSYMSPNKCSGMRFPLQEENSVTHHEVKCQGKPLAGIYRKREEKRNAGNAVRSAMKSEEQKIKDARKGPLVPFPNQKSEAAEPPKTPPSSCDSTNAAIAKQALKKPIKGKQAPRKKAQGKTQQNRKLTDFYPVRRSSRKSKAELQSEERKRIDELIEAGKEEGMKIDLIDGKGRGVIATKQFSRGDFVVEYHGDLIEITDAKKREALYAQDPSTGCYMYYFQYLSKTYCVDATRETNRLGRLINHSKCGNCQTKLHDIDGVPHLILIASRDIAAGEELLYDYGDRSKASIEAHPWLKH	no binding				no binding		

— PMC4682171
